Source: PubChem BioAssay AID686979 (National Center for Advancing Translational Sciences (NCATS), 2013)
Among all 420,000 compounds or so, about 50,000 (12%) were called active. The inconclusive results got no clear call from the source; some entries with a clear call stand among them for comparison. Calls come from the whole dose curve; as a rule, active = well fitted inhibition curve with a large enough effect; inconclusive = small, poorly fitted or top-dose-only effect; inactive = flat fitted curve, though single readings scatter. No potency is given beside an inconclusive call; the fits are too rough.
% is set by controls: 0 for no effect and ±100 for the full control effect; potency is the fitted concentration of half-maximal effect; tags give direction and shape of the fitted curve.

Experiment: qHTS for Inhibitors of human tyrosyl-DNA phosphodiesterase 1 (TDP1): qHTS in cells in presence of CPT; note: nearly all actives have a fitted effect of over 55% in size
Conditions: chicken DT40 Tdp1-/-;hTDP1 cells + 20 nM CPT, ATP luminescence, 48 h; activity change, negative = growth inhibition: at 46.2 µM (top of the series)
In short: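 Chicken DT40 Tdp1-/- cells stably complemented with human TDP1 were seeded at 400 cells/well in medium containing 20 nM camptothecin, exposed to pin-transferred compounds, and grown at 37 °C for at least 48 hr. Viability was read as ATP luminescence.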
In the case of Cn1c(Oc2ccccc2)c(C=O)c2ccccc21, the Potency was inconclusive [inhibitor, single point]. In the case of COc1ccccc1C/C(N)=N/OC(=O)COc1ccccc1C, the Potency was “inactive”. With Cc1ccc(/C=N/NC(=O)CNC(=O)COc2ccccc2)cc1 the Potency was “inactive”. In the case of CCCCCCOc1ccc(/C=N/NC(=O)C2CC2)cc1, the Potency was “inactive”. With Cc1cc(OC(C)C(=O)NC2CC(C)(C)NC(C)(C)C2)c2c(C)c(C)c(=O)oc2c1 (configuration not stated) the Potency was “inactive”. With CC1CCc2c(C(=O)NCc3ccco3)csc2C1 (configuration not stated) the Potency was inconclusive [inhibitor, partial curve, poor fit]. For CCC(C)Sc1ccc([C@H]2N[C@@](Cc3ccccc3)(C(=O)OC)[C@H]3C(=O)N(CC)C(=O)[C@@H]23)cc1 (some centres not stated), the Potency was inconclusive [inhibitor, single point]. In the case of CCC(O)(CC)C(=O)N(Nc1ccc(C)cc1)c1ccc(C)cc1, the Potency was inconclusive [inhibitor, single point]. With COc1ccc(C(c2nnnn2CC2CCCO2)N2CCN(c3cccc(C)c3C)CC2)cc1 (configuration not stated) the Potency was inconclusive [inhibitor, single point]. In the case of CCOc1ccc(C(=O)Nc2ccc3nc(N4CCN(CC)CC4)cc(C)c3c2)cc1, the Potency was inconclusive [inhibitor, single point]. In the case of Fc1cnc(Cl)nc1NC1CCCCC1, the Potency was inconclusive [inhibitor, single point]. With Cc1cc(Cl)ccc1OCCCC(=O)N1CCN(C)CC1 the Potency was inconclusive [inhibitor, single point]. With COc1cc2c(cc1OC)C(C(=O)Nc1cc(OC)c(OC)c(OC)c1)C(c1cccnc1)N(C)C2=O (configuration not stated) the Potency was “inactive”. For O=C(Nc1ccc(S(=O)(=O)N2CCc3ccccc32)cc1)c1ccco1, the Potency was inconclusive [inhibitor, single point]. With Cc1ccc2occ(CC(=O)Nc3ccc(S(=O)(=O)N4CCC(C)CC4)cc3)c2c1 the Potency was inconclusive [inhibitor, single point]. For CCOC(=O)C1=C(C)N(CCCC(=O)O)C(=O)NC1c1ccc(Cl)cc1Cl (configuration not stated), the activity change, negative = growth inhibition was inconclusive: -27.1% [inhibitor]. With Cc1ccc(N(Cc2ccccc2)C(=O)Cc2ccc(S(=O)(=O)N3CCOCC3)s2)cc1 the Potency was inconclusive [inhibitor, single point]. With CCOc1ccccc1N1C(=O)c2ccccc2N/C1=C\N1CCN(C(=O)c2ccco2)CC1 the Potency was “inactive”. For COc1cc(OC)c(-n2cc(-c3ccc(OC)c(OC)c3)[nH]c2=S)cc1Cl, the Potency was “inactive”. In the case of COc1ccccc1N1CCN(C2CCCCC2NS(=O)(=O)c2ccc(Cl)cc2)CC1 (configuration not stated), the Potency was active: 23.1 µM. In the case of COc1ccccc1C1=NOC(C)(c2nnc(Cc3ccccc3)o2)C1 (configuration not stated), the Potency was “inactive”. With O=C(Nc1ccccc1)NC1CCCCCCC1 the Potency was inconclusive [inhibitor, single point]. In the case of CC(=O)/C(C#N)=C1\NC(=O)C(Cc2ccccc2)S1 (configuration not stated), the Potency was inconclusive [inhibitor, partial curve]. In the case of CCN1CCc2c(OCC(=O)N3CCCc4ccccc43)cccc2C1=O, the Potency was “inactive”. In the case of C=CCNc1nc2ccccc2nc1NS(=O)(=O)c1ccc(Cl)cc1, the Potency was inconclusive [inhibitor, single point]. In the case of COc1ccc(CN(C2CCCC2)S(=O)(=O)c2ccc(-n3cnnn3)c(OC)c2)cc1OC, the Potency was inconclusive [inhibitor, single point]. For CCOCCCn1c(SCC(=O)Nc2cccc(S(=O)(=O)NC3=NCCCCC3)c2)nc2ccccc2c1=O, the Potency was inconclusive [inhibitor, single point]. For CCN(CC(=O)NCc1cccs1)C(=O)/C=C/c1ccc(OC)cc1OC, the Potency was inconclusive [inhibitor, single point]. In the case of N#Cc1nnn2c1nc(N)c1c(F)cccc12, the Potency was “inactive”. With CCc1cc(C(=O)NC2CCCc3c2cnn3-c2ccc(F)cc2F)no1 (configuration not stated) the Potency was active: 20.6 µM. For COCCCn1c(N)c(-c2nc3ccccc3n2C)c2nc3ccccc3nc21, the Potency was active: 25.9 µM. For CCCCC(=O)Nc1ccc(N2CCN(C(=O)CC)CC2)cc1, the Potency was “inactive”. For CCCOc1ccccc1/C=C1\SC(N2CCCCC2)=NC1=O, the Potency was inconclusive [inhibitor, partial curve]. For COc1ccc(C(=O)Nn2c(C)nnc2-n2nc(C)cc2C)cc1OC, the Potency was “inactive”. For O=C(CN1C(=O)/C(=C/c2ccccc2Cl)SC1=S)NC1CCS(=O)(=O)C1 (configuration not stated), the Potency was “inactive”. For COc1ccccc1CN1CC[C@@]2(CCCN(C(=O)c3cccc(F)c3)C2)C1, the Potency was “inactive”. With COc1ccccc1C(=O)NNC(=O)C(=O)Nc1ccc(C)cc1 the Potency was inconclusive [inhibitor, partial curve]. For CCOc1cc(-c2ccc(OC(=O)c3ccccc3)c(OC)c2)cc(=O)c2c(C)oc(C)c12, the Potency was active: 6.51 µM. In the case of O=C1c2ccccc2NC(c2ccc(OCc3ccccc3)c(OCc3ccccc3)c2)N1Cc1ccco1 (configuration not stated), the Potency was active: 11.2 µM. For CCOCCn1ccc2c(OCC(=O)Nc3cccc(F)c3)cccc2c1=O, the Potency was “inactive”. With O=C(NCCN1CCN(c2ccccc2)CC1)c1cccn2c(=O)c3cc(Cl)ccc3nc12 the Potency was inconclusive [inhibitor, single point]. In the case of COc1ccc(-c2noc(-c3ccccc3F)n2)cc1, the Potency was “inactive”. In the case of Oc1ccccc1-c1cc(-c2ccc(Cl)cc2)n[nH]1, the Potency was inconclusive [inhibitor, single point]. With CCOc1cc(N2CCOCC2)c(OCC)cc1NC(=O)CN1C(=O)NC(CC(C)C)C1=O (configuration not stated) the Potency was “inactive”. For COc1ccccc1NC(=O)c1cn(C)c(=O)c2cc(OC)c(OC)cc12, the Potency was “inactive”. In the case of O=C(NCc1ccccc1)C(c1ccccn1)N(C(=O)c1csnn1)c1ccccc1F (configuration not stated), the activity change, negative = growth inhibition was inconclusive: -10.5% [inhibitor]. For Cc1cc(SCC(=O)NC2(C#N)CCCCC2)nc2c(C)cccc12, the Potency was “inactive”. In the case of Cc1ccc(C2c3c(oc4ccccc4c3=O)C(=O)N2c2nnc(C)s2)cc1 (configuration not stated), the Potency was active: 13 µM. With CCN1CCC2(CC1)N=C(c1ccc(F)cc1)C(=S)N2C(=O)c1ccc(C(C)(C)C)cc1 the Potency was inconclusive [inhibitor, single point]. For Cc1cccc(N2C(=O)SC(SC(=Nc3ccccc3)Nc3ccccc3)C2=O)c1 (configuration not stated), the Potency was inconclusive [inhibitor, full curve]. With O=C(CN1CCN(S(=O)(=O)c2ccc(F)cc2)CC1)Nc1ccccc1F the Potency was inconclusive [inhibitor, partial curve]. In the case of Cc1c(C(=O)NC2CCCc3ccccc32)oc2ccc(S(=O)(=O)N3CCCCC3)cc12 (configuration not stated), the Potency was active: 0.259 µM. In the case of COc1ccc(OC)c2sc(N3CCN(C(=O)C4COc5ccccc5O4)CC3)nc12 (configuration not stated), the Potency was inconclusive [inhibitor, single point]. With COc1ccc(NC(=O)CCCN2C(=O)C3C4C=CC(C4)C3C2=O)c(OC)c1 (configuration not stated) the Potency was “inactive”. For Cc1ccccc1-c1ccc(C(=O)Nc2cccc(F)c2)o1, the Potency was inconclusive [inhibitor, single point]. In the case of CCC(C)N1C(=O)/C(=C/c2c(NCCCOC(C)C)nc3c(C)cccn3c2=O)SC1=S (configuration not stated), the Potency was inconclusive [inhibitor, single point]. For Cc1cc(C(=O)CSc2nnnn2-c2ccc(O)cc2)c(C)n1Cc1ccc2c(c1)OCO2, the Potency was inconclusive [inhibitor, single point]. With N#Cc1ccccc1OCC(=O)OCC(=O)NC1CC1 the Potency was “inactive”. For CC(O)CNc1ncnc2cc(-c3ccc(F)cc3)sc12 (configuration not stated), the Potency was inconclusive [inhibitor, single point]. With CN(CC(=O)Nc1ccccc1Cl)CC(=O)Nc1sc2c(c1C(N)=O)CCC2 the Potency was active: 25.9 µM. For CN(NS(=O)(=O)c1ccccc1)c1nc2ccccc2nc1C(F)(F)F, the Potency was “inactive”. For COc1ccc(S(=O)(=O)N2CCC(C(=O)Nc3cc(C(F)(F)F)ccc3Cl)CC2)cc1, the Potency was inconclusive [inhibitor, single point]. For COc1ccc(C2CC3(CC(C)(C)NC(=O)N3)Oc3cc(O)ccc32)cc1 (configuration not stated), the Potency was inconclusive [inhibitor, single point]. For CCCN(CCC)C(=O)Cn1c(=O)n(CCCCCC(=O)NCc2ccccc2Cl)c(=O)c2sccc21, the Potency was inconclusive [inhibitor, single point]. In the case of CC[C@]12c3[nH]c4ccc(OC)cc4c3CCN1C(=O)C(CC(=O)NCCCN(C)C)C[C@@H]2C(=O)N1CCN(C(=O)c2ccco2)CC1 (some centres not stated), the Potency was “inactive”. For COc1ccc(C(F)(F)F)cc1N/C=C\c1nnnn1-c1ccccc1, the Potency was inconclusive [inhibitor, single point]. With CCCOc1ccc(-c2cc(C(F)(F)F)c(C#N)c(SCCC(=O)O)n2)cc1 the Potency was inconclusive [inhibitor, single point]. In the case of COc1cc(/C=C(\C#N)c2ccccn2)ccc1OCc1ccccc1, the Potency was “inactive”. In the case of Cc1ccc(S(=O)(=O)C(CNC(=O)COc2ccccc2)c2ccco2)cc1 (configuration not stated), the Potency was inconclusive [inhibitor, single point]. For Cc1ccc(S(=O)(=O)c2c(C)cc(C)nc2N2CCCC2)cc1, the Potency was inconclusive [inhibitor, single point]. In the case of CNC(=S)N(CCc1c(C)[nH]c2ccc(C)cc12)Cc1cc(OC)c(OC)c(OC)c1, the Potency was inconclusive [inhibitor, partial curve, poor fit]. In the case of COc1ccccc1N1CCN(C(CNS(=O)(=O)c2ccccc2)c2cccnc2)CC1 (configuration not stated), the Potency was active: 23.1 µM.
